Measured values reported in PubChem BioAssay AID687005 (Broad Institute, 2013).
Results filed as inconclusive are left out. Not every entry of the source has a single result; some have several. This is not the full list of results. An entry can have further records. The records of an entry are repeats across runs, samples, wells, individuals or studies. Marks in square brackets tell the records apart. A, B and so on number the origins entry by entry.

Test system: HEK293T viability, ATP luminescence (CellTiter-Glo), 48 h
Assay: HEK293T cell cytotoxicity, dose response, cytotoxicity control, ATP luminescence, cherry-pick samples (AID 687005)

## COC(=O)C1=C(C)N(Cc2ccc(F)cc2)C(=S)NC1c1cccc(F)c1 (stereo unspecified)
  AC50: 4.4 µM [sample A] and 48.9 µM [sample B]
